This data set concerns ATP. Description: switch fluorescence ratio, 500 uM ATP over buffer (Cy3 cluster intensity, sum of 5 cycles each) (fold (ratio)); higher = stronger signal-on switching upon ATP binding; sequences stand for … in TCGTCGGCAGCGTCAGATGTGTATAAGAGACAGTTTTTTTTTTTTTTTTTTTTTTTTT…TC. To be noted: aptamer strand: ATP DNA aptamer (quencher-CACCTGGGGGAGTATTGCGGAGGAAGG + anchor), 100 nM annealed; ATP concentration: 500 uM; one replicate. An outline of the steps: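 The quencher-labelled ATP aptamer, at 100 nM, was annealed to Cy3-labelled switching-strand clusters on a modified Illumina MiSeq flow-cell. The clusters were imaged in selection buffer, then after 15 min with 500 uM ATP at 22 °C, and this buffer/ATP cycle ran five times with NaOH stripping and re-annealing between runs. Per-cluster fluorescence ratios, summed target-cycle over summed buffer-cycle Cy3 intensity, were averaged per switch-domain sequence. Clusters outside 100-1000 RFU were excluded.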

The results in this text go back to the supplement of paper PMC10126150.

Sequences with one replicate were seen in a single cluster, so their values are uncertain.
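Further: ATP exposure 15 min at 22 °C before imaging.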

As to AGTATCATG, the switch fluorescence ratio was 0.987.
As for TCTTATTGT, the switch fluorescence ratio was 0.997.
For CGGTGGAAAC the value was 1.02; for TTAATTCTGT, 0.962.
Take TCTGTGCAGC: the switch fluorescence ratio was 1.08.
The value for CGTCCGAGGG was 1.19; that for AAATAGAAAA was 1.02; that for GATAAGGGAG was 0.971.
The value for GCATTTCTGC was 0.991.
For GACCTCGCTC the value was 1.19.
Consider CAACGAGTTC, for which the switch fluorescence ratio came out at 0.956.
Take GTCTGAATGG: the switch fluorescence ratio was 0.904.
The value for GCGGTGTAGT was 1.03.
The value for AAACCTCGTA was 1.06; that for TTTGAAAGAG was 0.971; that for TTTCCCCCTG was 1.58.
On to AGATTTAGGT, for which the switch fluorescence ratio turned out to be 0.974.
For CGTGTGCCTA the value was 1.03.
For GGGGGATC the value was 1.01; for GTACCCCGGC, 1.05; for GGATTCTT, 1.01.
For CGTTCAGAT the value was 1.14; for TGGTAGCGAG, 1.01; for AGATGGAC, 1.02.
As to ATGGAAACTC, the switch fluorescence ratio was found to be 1.02.
The value for AATATGCGAA was 0.985; that for TGTGCCGTTA was 1; that for TAGCATTCGA was 1.1.
The value for TGGATAGGCC was 0.984; that for GTATAGAAGG was 1.02.
For ATTCATATAG the value was 0.964; for GAACGAGACC, 1.15; for TGAGAGCCAA, 1.01.
In the case of CTACACGTG, the switch fluorescence ratio was found to be 1.04.
For CAAAGGATAT the value was 0.99.
The value for TATATTTTCG was 1.01; that for TCGGAAAAGA was 1.04; that for GATGCGGACG was 1.03.
The value for CTATCTGGTG was 1.16; that for AGCCATTCTA was 1.01; that for TGGTGGCAGT was 1.01.
On to AGGAACGCCC, for which the switch fluorescence ratio came out at 0.881.
For TGAATACATG the value was 0.944; for ATGGCAACCT, 1.51; for TTCGTGAGGG, 1.01.
The value for CGGGTGAAAA was 0.964; that for GTGGGAGCCC was 1.02.
Regarding ATGAATAAGA, the switch fluorescence ratio is 0.963.
The value for AAGAACAAGT was 0.951; that for AACGGAGTCT was 0.99.
The value for CATAAATGGA was 1; that for TTCACCATGA was 1.02.
For the sequence AATCGACGTG, the switch fluorescence ratio was determined as 0.96.
Take TTATGACGAC: the switch fluorescence ratio amounted to 1.05.
For CCAGTGGGGG the value was 1.01.
For TCGCGCTTAA the value was 1.12; for GCCTGGTCGT, 0.989; for GGTACTCGC, 0.994.
The value for TCTAAGTTAG was 0.976.
Regarding CACTGAGAAA, the switch fluorescence ratio is 1.
The value for TGACATTTGG was 0.968; that for GGTCTTATAC was 1.11; that for TCGGCGATAC was 3.33.
For ATGTCGTAGC the value was 1.01.
The value for TCTCTTTATG was 0.993.
On to CACCCCGGGC, for which the switch fluorescence ratio came to 1.1.
For TTAAAACAA the value was 1.02; for ATGCGCGTGG, 1.03.
For TTGCTAATGT the value was 0.987.
TACGGACTCA: the switch fluorescence ratio came to 1.34.
The value for TAAGCTTGTT was 0.992; that for ATGTTGTGT was 1.04.
For AACGGATCAA, the switch fluorescence ratio worked out at 0.978.
For TAGCTCATTT the value was 0.985; for GATGGTTGAG, 0.969; for CCTGTTCGGA, 1.
The value for GAGCTATAGG was 1.15; that for CGTATGCGGT was 0.987.
The value for TCTCGATAGT was 0.98; that for TTCAGGGATC was 1.12; that for GAAATCAAG was 1.01.
Take TAATAAGTAT: the switch fluorescence ratio turned out to be 1.43.
For AAAAACGGAT the value was 0.977.
With CGGTCTGACG, the switch fluorescence ratio came out at 1.1.
Turning to CTTAAGCGCG, the switch fluorescence ratio stood at 0.925.
The value for CGTAGTGGA was 1.03; that for TAACCTCGAG was 0.985.
For CAAATTGTCT the value was 0.98; for CATAGTTCAC, 1.03; for CACGCACGAA, 1.58.
For ACATGTCGCT the value was 1.06; for GGACTAAGGC, 1.02; for CTGTCGAAT, 0.993.
For the sequence TTATAAGCCG, the switch fluorescence ratio stood at 1.01.
TTTTCTAGGA: the switch fluorescence ratio stood at 0.982.
The value for GTGTGAAAAT was 0.965.
For CTTTGAACGC the value was 1.1; for CCTCAGGTTG, 2.33.
For GCTTGCAGGT the value was 0.997; for TAGGCGATCT, 1; for CTATATCGC, 1.02.
Take CCCAGGTTCT: the switch fluorescence ratio was 1.88.
The value for CGGGCGATTA was 1.05.
For TAAGTTACGG the value was 1.4.
The value for GTAATGCTGT was 1.17.
As for TATGTATAAG, the switch fluorescence ratio was 0.962.
For ATAGAAAGTT the value was 0.999.
The value for GCAAGTTAA was 1.02; that for CAATGCATTG was 0.981; that for TTTGTAGTAC was 3.36.
The value for TTTTTCTTGA was 0.986; that for TAGGTGTGGA was 0.997.
Consider TTTCGAATGC, for which the switch fluorescence ratio turned out to be 1.01.
Take TCAACGAGGG: the switch fluorescence ratio was 0.964.
The value for CATGTGAGTG was 0.963; that for GACTTGGTAA was 0.99.
As to GTGGCAACCA, the switch fluorescence ratio worked out at 1.
For GCAGGGAATA the value was 0.992; for GATGCCCGA, 0.991; for ATGCTTCATG, 0.974.
